The assay deals with IL-17A. Briefly: Skin-Resident Immune Cell Activation: ex vivo human skin explants under Th17-polarizing conditions, IL-17A qPCR. The settings on record: compound 1 10 μM, one day pretreatment, 24 hrs post stimulation, relative to vehicle-treated (0.2% DMSO). The text has this: In this example, we investigate the ability of compound 1 to suppress the release of IL-17A from ex vivo human skin challenged with a pro-inflammatory Th17-skewing cocktail.
Stimulation of skin-resident immune cells in ex vivo human skin explants leads to the production of pro-inflammatory cytokines, including but not limited to IL-17A, IL-17F, and IL-22, thereby providing a novel model system with which to evaluate immunomodulatory therapeutics targeting skin inflammatory processes.
The ability of a test compounds to modulate the expression of pro-inflammatory cytokines was assessed using the skin-Resident Immune Cell Activation method. Ex vivo human skin obtained from abdominoplasty surgery was processed to remove fat and the tissue dermatomed to ˜750 microns. […]
Total RNA was isolated from about 30-40 mg of tissue using Qiagen's (Cat #74106) Mini RNA Isolation kit. […] For each technical replicate, 100 ng of RNA was used as template in a 20 uL PCR volume using Applied Biosciences RNA-to-CT 1 Step kit (AB Catalog #4392938) as well as the specific TaqMan probe for each gene to be quantified. […]
Relative gene expression data were averaged across triplicate biological replicates from PCR amplification run in technical triplicates. All data were normalized to untreated control samples (set to 1), and the average fold change (+/−SEM) calculated for each graph. […]
On the technique in general: Quantitative PCR measures a nucleic acid by following its amplification.

With `CC(C)c1c(O)cc(/C=C/c2ccccc2)cc1O` [Compound 1], the IL-17A gene expression entry was “reduced the level of IL-17A gene expression”.
